Among all 310,000 compounds or so, about 14,000 (4.5%) showed an effect of 50% or more. The effect is printed as a negative number. The list shows a part of the results.
Each compound was assayed against human ether-à-go-go-related gene (hERG) potassium channel (human, UniProt Q12809) (assay: primary screen, population patch clamp on CHO cells stably expressing hERG).
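Further: peak tail current of the secondary pulse compared with the same well before compound.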

human ether-à-go-go-related gene (hERG) potassium channel, sequence (Q12809 whole entry, looked up): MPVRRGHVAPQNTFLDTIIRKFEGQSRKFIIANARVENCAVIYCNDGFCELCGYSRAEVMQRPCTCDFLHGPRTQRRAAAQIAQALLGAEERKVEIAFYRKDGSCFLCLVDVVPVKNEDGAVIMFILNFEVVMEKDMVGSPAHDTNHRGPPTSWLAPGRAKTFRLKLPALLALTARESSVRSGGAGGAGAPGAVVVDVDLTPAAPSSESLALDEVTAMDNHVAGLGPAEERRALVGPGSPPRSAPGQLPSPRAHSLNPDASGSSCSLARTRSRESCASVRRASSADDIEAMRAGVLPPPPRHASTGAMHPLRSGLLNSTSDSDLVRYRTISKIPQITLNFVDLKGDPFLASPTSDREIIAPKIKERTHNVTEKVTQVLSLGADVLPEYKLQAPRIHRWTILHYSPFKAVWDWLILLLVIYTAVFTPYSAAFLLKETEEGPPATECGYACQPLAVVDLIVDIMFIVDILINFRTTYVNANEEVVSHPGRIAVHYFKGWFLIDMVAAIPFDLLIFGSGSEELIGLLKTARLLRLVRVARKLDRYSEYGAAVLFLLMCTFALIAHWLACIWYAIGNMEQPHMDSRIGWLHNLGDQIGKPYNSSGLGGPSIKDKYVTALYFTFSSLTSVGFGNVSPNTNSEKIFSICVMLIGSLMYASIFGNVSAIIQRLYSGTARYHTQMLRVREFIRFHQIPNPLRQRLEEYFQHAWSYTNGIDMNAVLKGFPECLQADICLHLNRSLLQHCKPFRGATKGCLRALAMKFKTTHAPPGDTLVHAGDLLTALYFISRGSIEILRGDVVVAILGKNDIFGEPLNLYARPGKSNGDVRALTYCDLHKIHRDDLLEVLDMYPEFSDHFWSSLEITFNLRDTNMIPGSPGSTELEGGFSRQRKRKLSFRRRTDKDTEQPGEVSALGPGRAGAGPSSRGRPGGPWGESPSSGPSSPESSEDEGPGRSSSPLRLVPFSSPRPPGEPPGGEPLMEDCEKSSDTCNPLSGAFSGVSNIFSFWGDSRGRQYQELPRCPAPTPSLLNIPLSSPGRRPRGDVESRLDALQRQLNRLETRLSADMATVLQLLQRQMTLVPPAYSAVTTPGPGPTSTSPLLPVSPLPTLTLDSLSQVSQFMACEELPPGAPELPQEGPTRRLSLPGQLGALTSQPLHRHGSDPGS

Structure (SMILES) | hERG current change (%, negative = inhibition) at 10uM [%]
COC(=O)c1ccc(CN2CCCCC2)cc1 | 1.45
CC(C)CN1CCN(Cc2cnc(-c3ccc(Cl)cc3)nc2)CC1CCO (stereo not shown) | -67.2
Cc1ccc(-c2noc(COC(=O)c3ccco3)n2)cc1 | -13.3
CC(c1nnc(SCC(=O)Nc2cccnc2Cl)n1-c1ccccc1)N(C)C (stereo not shown) | 5.26
COc1ccccc1C(=O)Nc1ccc(-c2nnn(CC(=O)N3CCOCC3)n2)cc1 | 19
COc1cccc(OC)c1CN1CCCC(C(=O)c2ccccc2SC)C1 (stereo not shown) | -72.6
CSc1ccccc1NC(=O)c1cccnc1 | 26.7
C/C(=N\N(c1ccccc1)c1ccccc1)c1ccc(O)cc1 | 3.42
O=C1CC(C(=O)O)c2ccccc2N1 (stereo not shown) | -4.12
CN(C)S(=O)(=O)c1ccc(C(=O)NCc2cccs2)cc1 | 5.55
COP(=O)(OC)C(Nc1ccc([N+](=O)[O-])cc1)c1ccccc1 (stereo not shown) | -36.1
Cc1c(CCOC(=O)C23CC4CC(CC(C4)C2)C3)sc[n+]1Cc1ccccc1.[Cl-] | -8.89
O=C(CN1CCN(c2ccccc2)CC1)NCc1ccc(F)cc1 | -11
CCOC(=O)C1C(=O)CC(C)(O)C(C(=O)OCC)C1c1ccc(SC)cc1 (stereo not shown) | 0.306
CC(Sc1nc2ccccc2s1)C(=O)Nc1nnc(C(C)C)s1 (stereo not shown) | -21.5
CCOc1ccc(S(=O)(=O)N(C)c2ccc(OCC(=O)Nc3nc4ccccc4s3)cc2)cc1 | 13.9
Cc1coc2c(C)c3oc(=O)c(CC(=O)N[C@@H](CC(C)C)C(=O)O)c(C)c3cc12 | 8.8
O=C(NCCCN1CCCC1=O)Nc1ccc([N+](=O)[O-])cc1 | -2
Cl.c1ccc(-c2ccc(CNC3CC3)cc2)cc1 | 15.2
Cc1ccc(S(=O)(=O)N2CCCC2C(=O)NC2CCCCC2)cc1 (stereo not shown) | 12.2
CCNc1nc(NC(C)C)nc(OCCOC(=O)c2ccccc2)n1 | -30.7
N#Cc1c(-c2ccccc2F)cc(-c2cccnc2)nc1N | -5.89
O=C(Nc1nncs1)c1cc(S(=O)(=O)N2CCOCC2)ccc1Cl | 17.8

Structure (SMILES) | hERG current change (%, negative = inhibition) at 10uM [%]
COc1ccc(S(=O)(=O)N2CCN(CC(=O)Nc3ccccc3OC)CC2)cc1 | -5.56
C/C=C/COC(=O)c1[nH]c2c(c1C)C(=O)CC(c1ccco1)C2 (stereo not shown) | 0.369
COc1ccc(CNC(=O)COC(=O)c2cccs2)cc1 | 8.95
Cc1cc(C)n(CCNC(=O)CC2C(=O)NCCN2Cc2ccccc2C(F)(F)F)n1 (stereo not shown) | 8.81
Cc1c(C(=O)N2CCCC2)oc2c1-c1nn(CC(=O)NCCCN3CCCCC3)cc1CC2 | 9.72
COc1ccc(C(=O)Nc2ccc(C(=O)OCC(=O)c3cccc4ccccc34)cc2)cc1 | 9.99
Cc1ccc2[nH]c(=O)c(-c3nc4c(C)cccn4c3NCc3ccco3)cc2c1 | 12.5
N#CCSc1nnc(C2CCCCC2)n1-c1ccccc1 | 4.45
CC(C)OC(=O)CC1=NC(=O)CS1 | 0.398
COc1cccc(NC(=O)CN(C)S(=O)(=O)c2ccc3c(c2)NC(=O)CS3)c1 | -2.47
O=C(N/N=C\c1cc2c(cc1Cl)OCO2)c1ccc(Br)s1 | 14.6
CCOC(=O)c1ccccc1NC(=O)c1c(F)c(F)c(F)c(F)c1F | 10.2
CC(C)CCn1c(=O)c(C(=O)NCc2ccco2)c(O)c2ccccc21 | 8.73
COc1ccc(CCNC(=O)CSc2nccc(=O)[nH]2)cc1OC | 30.5
CN(C)CC(C)(C)CNC(=S)Nc1cc(S(=O)(=O)N2CCOCC2)ccc1Cl | -8.3
CC1(C)CC(NS(=O)(=O)c2ccccc2)CC(C)(C)N1 | -22.7
CCOC(=O)C(C)n1cnc2sc3c(c2c1=O)CCC3 (stereo not shown) | 11.3
CC(C)=CCN1CCN(Cc2c(C)nn(C)c2Cl)CC1CCO (stereo not shown) | -1.4
COc1ccc(NC(C)=O)cc1C | -5.61
CCN(CC)c1ccc2cc(NC(=O)CCC(=O)O)c(=O)oc2c1 | 11.7
Cc1ccc(NC(=O)CCNC(=O)c2ccco2)cc1F | 11.7
S=c1[nH]nc(-c2ccco2)n1/N=C/c1ccccc1 | 9.95
CCn1c(-c2cc(-c3cc(C)ccc3C)nc3ccccc23)n[nH]c1=S | -8.56

Structure (SMILES) | hERG current change (%, negative = inhibition) at 10uM [%]
O=[N+]([O-])c1cccnc1Sc1n[nH]c(-c2ccc(Cl)cc2)n1 | 3
Nc1c2c3c(sc2nc(=O)n1N)CCCC3 | 15.3
CC12CCC(C(=O)N3CCN(c4ncccn4)CC3)(c3nc4ccccc4nc31)C2(C)C (stereo not shown) | -20.2
CN1C(=O)CC(c2ccccc2)CC1=O | -18.9
O=C(NCC(=O)N1CCOCC1)c1ccccc1 | 17
O=C(NCCOCc1ccc(Cl)cc1)c1ncn[nH]1 | 6.91
CNC(=S)N1CCN(CCN=Cc2c(O)n(-c3ccc(C)cc3)c(=S)[nH]c2=O)CC1 | 21.2
O=[N+]([O-])c1ccc2nc(-c3ccccn3)[nH]c2c1 | 15
Cc1ccccc1NC(=O)CCCSc1nc2ccccc2s1 | -4.5
Cc1ccc(S(=O)(=O)Nc2ccc3nc(C)sc3c2)cc1 | 16.5
N#CCSc1nnc(SCC#N)s1 | 6.54
O=C(Cc1cccs1)Nc1ccccc1F | 10.1
C/C(=N\OC(=O)c1ccc(C)cc1)c1sc(C)nc1C | -13.9
COc1ccc(Oc2ncnc3c2oc2ccc(Br)cc23)cc1 | 16.8
COc1ccc(OC)c(-c2cc(C(=O)NCc3ccc(Cl)cc3)no2)c1 | 31.6
CCOc1ccc(S(=O)(=O)N2CCN(Cc3ccc4c(c3)OCO4)CC2)cc1Cl | -8.94
CCCC(=O)N1CC(=O)Nc2ccc(C)cc2C1c1ccccc1 (stereo not shown) | 0.122
O=[N+]([O-])c1ccc(-c2c(-c3ccccc3)ncc3ccc(F)cc23)cc1 | -9.5
Cc1ccc(-n2nc(C)c(NC(=O)COC(=O)c3ccccc3NCCO)c2C)cc1 | -3.72
COc1ccc(Br)cc1CNCC1CCCO1 (stereo not shown) | 5.7
O=C(NCCc1nccs1)C1CCC(=O)N(CCc2ccc(Cl)cc2)C1 (stereo not shown) | -31.6
COc1cccc(C(=O)Nc2nc3ccc(S(C)(=O)=O)cc3s2)c1 | 8.27
CCn1c(SCC(=O)Nc2ccc(N(C)C)cc2)nnc1-c1cccc(C)c1 | -19.1

Structure (SMILES) | hERG current change (%, negative = inhibition) at 10uM [%]
Clc1ccc(CN2CCN(c3ncnc4scc(-c5cccs5)c34)CC2)cc1 | -41.3
CCN(CC)c1ccc(N=Cc2c(O)n(CCc3ccc(OC)c(OC)c3)c(=O)[nH]c2=O)cc1 | 8.94
C#Cc1cccc(NC(=O)c2ccc(Cl)cc2Cl)c1 | 7.03
Cc1ccc(-c2nn3c(C)nnc3s2)cc1N | 0.932
O=C(O)CC1(CC(=O)Nc2ccc(Cl)cc2C(=O)c2ccccc2)CCCC1 | 6.78
O=C(N/N=C/c1c(O)ccc2ccccc12)c1cccc(C(F)(F)F)c1 | 12.1
O=C(NCCc1ccccc1)C1CCN(S(=O)(=O)c2ccc(Br)s2)CC1 | -7.73
CCCCCOc1ccc(C(=O)Nc2ccc(S(=O)(=O)Nc3cc(C)on3)cc2)cc1 | 21.2
CCc1ccc(OCC(=O)NC(=S)Nc2ccc(S(=O)(=O)NC3CCCCC3)cc2)cc1 | 19.9
O=[N+]([O-])c1ccc(Cl)c(S(=O)(=O)Nc2ccc(-c3ccc(N4CCOCC4)nn3)cc2)c1 | 13.7
O=C(NCc1ccccc1Cl)C(=O)NCC1OCCCN1S(=O)(=O)c1cccs1 (stereo not shown) | -4.52
C[C@H](NC(=O)N1CCn2c1nc1ccccc12)C(=O)NC1CCCCC1 | -7.83
CCCn1c(O)c(CN2CCCCC2)c(C)c(C#N)c1=O | 15.5
CC(=O)c1cccc(NC(=O)c2cc(-c3ccncc3)nc3ccccc23)c1 | -31.3
CC(CN1CCCC1)OC(=O)c1ccc(Cl)cc1Cl.Cl (stereo not shown) | -33.7
O=C(CC1C(=O)NCCN1C(=O)Nc1ccc(F)cc1F)Nc1ccc(F)cc1 (stereo not shown) | 22.2
Cc1ccc(N2C(=O)CC(n3ccnc3)C2=O)cc1C (stereo not shown) | -3.27
CC(C)(C)NC(=O)C(c1ccc(O)cc1)N(C(=O)CCC(=O)Nc1ccccn1)c1ccc(F)cc1 (stereo not shown) | 8.1
Clc1cc(Br)ccc1OCCN1CCOCC1.O=C(O)C(=O)O | -2.95
CCOC(=O)CC1C(=O)NCCN1S(=O)(=O)c1ccc(F)cc1 (stereo not shown) | 10.4
O=C(O)CN1C(=O)/C(=C\c2cc([N+](=O)[O-])ccc2OCc2ccccc2Cl)SC1=S | 29.4
COc1cc(C(=O)N/C(=C\c2cn(C)c3ccccc23)C(=O)NCCN2CCOCC2)cc(OC)c1OC | 12.9

Reference: PMC4336329 (PLoS ONE, 2015)
